# Laboratory results: the supplement of paper PMC3334620
# Whole data set: some 33,000 sequences, median “E-score (-0.5 to 0.5)” near -0.04, cut for the highest 2% near 0.36. The list shows a part of the results.
# Biological target: T1, Hmlalpha2 (UniProt P0CY09)
# T1 sequence: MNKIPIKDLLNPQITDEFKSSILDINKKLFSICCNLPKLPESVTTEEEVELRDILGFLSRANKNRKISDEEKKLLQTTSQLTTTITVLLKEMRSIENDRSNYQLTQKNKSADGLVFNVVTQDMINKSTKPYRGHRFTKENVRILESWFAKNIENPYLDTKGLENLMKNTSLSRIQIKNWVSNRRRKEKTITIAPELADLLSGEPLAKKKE
# Assay: PBM E-score (8-mer binding enrichment) (E-score (-0.5 to 0.5)); higher = stronger / more preferred TF binding; most listed sequences are background and not binding sites
# Settings: protein concentration: 200 nM; construct: GST-full length
# Summary of the method: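 Yeast transcription factors, full-length or as DNA-binding domains, were expressed with a GST tag using PURExpress in vitro transcription/translation. At about 100-200 nM they were applied to universal all-10-mer Agilent arrays, double-stranded by primer extension on fresh or once-stripped slides. Fluorescent anti-GST detected bound protein, and masliner normalised the scans. E-scores for ungapped eight-base words, pooled with reverse complements, came from the Universal PBM Analysis Suite.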
row,Sequence,PBM E-score
1,CTACACCC,0.0904
2,GCGGCCAC,-0.309
3,TCGCACCA,-0.0912
4,CGCACGGA,-0.12
5,GAGATTAC,0.0945
6,TAGCTTGA,-0.159
7,CCCTCGCG,-0.199
8,TAGTGCGA,-0.117
9,ATAATTGA,0.0689
10,GACGAAGA,0.0546
11,ATCCCTCC,-0.168
12,CGTGTAAC,0.443
13,CGGTATCC,-0.145
14,TTACCCAA,0.02
15,ACCACACT,0.0159
16,ATAAATAT,0.135
17,CTGAGGGC,-0.3
18,ATAGGAGG,-0.225
19,TGGAATAA,-0.00689
20,AGTGAGAA,-0.0698
21,AGTACCAT,-0.00906
22,GCTCGCTA,-0.0434
23,AGCGCGCG,0.052
24,AATTCACT,0.147
25,ACAGTCCT,-0.193

row,Sequence,PBM E-score
1,AAACCTCG,-0.183
2,ATTGAAGA,0.0407
3,ATCCTCAC,-0.0377
4,AGCTACCC,-0.105
5,CAGACATG,0.189
6,ATTATGCC,0.00988
7,CGACCGTC,-0.121
8,ACAACCGA,0.103
9,AATTTTTC,0.0835
10,CGCACTCC,-0.303
11,ACCCGAAT,-0.168
12,ATCTAAAA,-0.108
13,CTGATAAC,0.182
14,AACGGACA,0.0995
15,CCTAATGC,-0.08
16,AGGCGTAC,0.145
17,ACGGAGCC,-0.268
18,ACTGACTG,-0.134
19,TAATACTA,0.262
20,ATCCGCAC,-0.0873
21,GGATACAC,0.126
22,CACAATCA,-0.0456
23,ATCTTGCC,-0.0499
24,CCATAAAG,-0.147
25,AGACGCAT,0.0445

row,Sequence,PBM E-score
1,GACTTAGC,-0.207
2,ACTTGTAG,0.0979
3,ACAGTGCC,-0.164
4,ACCTCGGC,-0.152
5,GAAAATTC,-0.0326
6,TCCTCGAA,0.0204
7,CGTAAGGC,-0.00831
8,TCCCCGGA,-0.135
9,GAACCGCC,-0.231
10,CTAGTTTC,-0.166
11,CAGGGGAA,-0.248
12,CGTTCGCC,-0.133
13,AGTATTCG,-0.00324
14,CAGGGCAG,-0.089
15,CTTATTAA,0.0883
16,CAAAGTTC,-0.0484
17,TACTAACA,0.309
18,CGGCGGCC,-0.188
19,CATTGTGC,0.0184
20,GCCCATCC,-0.209
21,AATCGGCT,-0.0964
22,GAACCGGC,-0.33
23,CCTTATCA,0.169
24,CCTGTGAG,-0.0957
25,ACACCGCG,0.15

row,Sequence,PBM E-score
1,ACCCAGAC,-0.0829
2,ACATTCTC,0.0991
3,CGTGCGGA,-0.219
4,CAGGAGAA,-0.236
5,AATCCGTG,-0.129
6,CACAGATG,0.0986
7,GGTACACA,0.246
8,CTAGGTTC,-0.252
9,AGTAGACT,0.0423
10,ATAGGTTA,0.196
11,GAATACTA,0.227
12,GACGTTCC,-0.0125
13,TCTTCCAA,0.0415
14,TAGCCACA,-0.0384
15,GACGAGGC,-0.26
16,AACACCTT,0.135
17,AAACATCG,0.0183
18,GGATTCAA,-0.166
19,CCTAAATC,-0.0342
20,CATAAAAA,0.186
21,CAGCATAA,-0.0659
22,TGGGGAAA,-0.0193
23,CGGTCCTA,-0.253
24,ACATTGCT,0.235
25,AATTCTAA,0.13

row,Sequence,PBM E-score
1,CTTGTTGA,0.352
2,CCGCCCAA,-0.139
3,AGGCGAAG,-0.201
4,GCGTTCCA,-0.128
5,ATTTGCAG,-0.0744
6,CAGACGCC,-0.145
7,ATGATTCG,-0.0377
8,GAGTTCTA,-0.142
9,TACAGGAA,0.158
10,CTACCTTA,0.00802
11,GTACGTCA,0.0179
12,AGCGTGAT,0.0131
13,ATTGGCCG,-0.21
14,CCTTTCAC,-0.0828
15,CAGAGGAG,-0.284
16,CAACGCTC,0.0296
17,CCTTGGCC,-0.362
18,GCATATTA,0.121
19,AGTCGTAG,-0.0352
20,GCGTTTCC,-0.0952
21,ATAATCCG,0.00942
22,GTTTTCTA,0.149
23,GCCCTGTA,0.186
24,AGTACTTC,0.137
25,GAAAAAGA,0.0555

row,Sequence,PBM E-score
1,ATTCCGGA,-0.129
2,GCAAAAAA,0.0934
3,GCGTTACA,0.276
4,ATCTGTGG,-0.267
5,GCAGCAGA,-0.0749
6,GCGCGGGA,-0.185
7,GCGCCACC,-0.155
8,ATTTCATC,-0.0172
9,TATAATGA,0.172
10,CAGGAATC,-0.185
11,CGCACCAG,-0.0323
12,GGTTCAAA,0.0562
13,ATTAAGTG,0.126
14,AGAACCAG,-0.122
15,CGTATCCC,-0.0632
16,GCGACCAC,-0.164
17,AGAACCGA,-0.0617
18,CACATCTA,0.209
19,GTACCCAA,-0.139
20,AGTATACC,0.051
21,GACTAGTC,-0.106
22,CTGCCCTC,-0.193
23,CAGAACCC,-0.163
24,AATGTCCC,-0.253
25,AGACCGGC,-0.132

row,Sequence,PBM E-score
1,GCATTTCA,-0.082
2,AATCCGAA,-0.117
3,ATCCGTGG,-0.229
4,AGGCGACA,-0.243
5,ATACATTA,0.33
6,AGGTTCGG,-0.305
7,GATATGGA,0.0312
8,AAGCTGGC,-0.0714
9,CAGGGAAA,-0.215
10,GCGTAAAC,0.404
11,CCGCAGCG,-0.224
12,GAACCGTA,-0.288
13,CTCGCTGA,0.0421
14,ATAAAACG,0.153
15,ACTATCGA,-0.078
16,ACTTTGGC,-0.268
17,AGGGGTGA,-0.304
18,CAAACGGG,-0.0756
19,ACTACTGC,-0.0623
20,CCTCACAC,-0.126
21,CGAGCTCC,-0.0747
22,ACATTGAC,0.301
